Measurements from US20200347115A1 (Hoffmann-La Roche, published 2020).

B1: FAP(4B9)-4-1BBL (Charged variant), Construct 2.4 of WO 2016/075278 (Fc fusion)
chain 1: REGPELSPDDPAGLLDLRQGMFAQLVAQNVLLIDGPLSWYSDPGLAGVSLTGGLSYKEDTKELVVAKAGVYYVFFQLELRRVVAGEGSGSVSLALHLQPLRSAAGAAALALTVDLPPASSEARNSAFGFQGRLLHLSAGQRLGVHLHTEARARHAWQLTQGATVLGLFRVTPEIPAGLGGGGSGGGGSREGPELSPDDPAGLLDLRQGMFAQLVAQNVLLIDGPLSWYSDPGLAGVSLTGGLSYKEDTKELVVAKAGVYYVFFQLELRRVVAGEGSGSVSLALHLQPLRSAAGAAALALTVDLPPASSEARNSAFGFQGRLLHLSAGQRLGVHLHTEARARHAWQLTQGATVLGLFRVTPEIPAGLGGGGSGGGGSRTVAAPSVFIFPPSDRKLKSGTASVVCLLNNFYPREAKVQWKVDNALQSGNSQESVTEQDSKDSTYSLSSTLTLSKADYEKHKVYACEVTHQGLSSPVTKSFNRGE[omitted - human IgG1 Fc with changes]
chain 2: REGPELSPDDPAGLLDLRQGMFAQLVAQNVLLIDGPLSWYSDPGLAGVSLTGGLSYKEDTKELVVAKAGVYYVFFQLELRRVVAGEGSGSVSLALHLQPLRSAAGAAALALTVDLPPASSEARNSAFGFQGRLLHLSAGQRLGVHLHTEARARHAWQLTQGATVLGLFRVTPEIPAGLGGGGSGGGGSASTKGPSVFPLAPSSKSTSGGTAALGCLVEDYFPEPVTVSWNSGALTSGVHTFPAVLQSSGLYSLSSVVTVPSSSLGTQTYICNVNHKPSNTKVDEKVEPKSC
heavy: EVQLLESGGGLVQPGGSLRLSCAASGFTFSSYAMSWVRQAPGKGLEWVSAIIGSGASTYYADSVKGRFTISRDNSKNTLYLQMNSLRAEDTAVYYCAKGWFGGFNYWGQGTLVTVSSASTKGPSVFPLAPSSKSTSGGTAALGCLVKDYFPEPVTVSWNSGALTSGVHTFPAVLQSSGLYSLSSVVTVPSSSLGTQTYICNVNHKPSNTKVDKKVEPKSCDKTHTCPPCPAPEAAGGPSVFLFPPKPKDTLMISRTPEVTCVVVDVSHEDPEVKFNWYVDGVEVHNAKTKPREEQYNSTYRVVSVLTVLHQDWLNGKEYKCKVSNKALGAPIEKTISKAKGQPREPQVCTLPPSRDELTKNQVSLSCAVKGFYPSDIAVEWESNGQPENNYKTTPPVLDSDGSFFLVSKLTVDKSRWQQGNVFSCSVMHEALHNHYTQKSLSLSPGK
light: EIVLTQSPGTLSLSPGERATLSCRASQSVTSSYLAWYQQKPGQAPRLLINVGSRRATGIPDRFSGSGSGTDFTLTISRLEPEDFAVYYCQQGIMLPPTFGQGTKVEIKRTVAAPSVFIFPPSDEQLKSGTASVVCLLNNFYPREAKVQWKVDNALQSGNSQESVTEQDSKDSTYSLSSTLTLSKADYEKHKVYACEVTHQGLSSPVTKSFNRGEC
B2: FAP (4B9)-4-1BB ligand (71-248) contorsbody P1AA1235 (Fc fusion)
chain 1: REGPELSPDDPAGLLDLRQGMFAQLVAQNVLLIDGPLSWYSDPGLAGVSLTGGLSYKEDTKELVVAKAGVYYVFFQLELRRVVAGEGSGSVSLALHLQPLRSAAGAAALALTVDLPPASSEARNSAFGFQGRLLHLSAGQRLGVHLHTEARARHAWQLTQGATVLGLFRVTPEIPAGLGGGGSGGGGSDKTHTCPPCPAPEAAGGPSVFLFPPKPKDTLMISRTPEVTCVVVDVSHEDPEVKFNWYVDGVEVHNAKTKPREEQYNSTYRVVSVLTVLHQDWLNGKEYKCKVSNKALGAPIEKTISKAKGQPREPQVCTLPPSRDELTKNQVSLSCAVKGFYPSDIAVEWESNGQPENNYKTTPPVLDSDGSFFLVSKLTVDKSRWQQGNVFSCSVMHEALHNHYTQKSLSLSPGGGGGSGGGGSREGPELSPDDPAGLLDLRQGMFAQLVAQNVLLIDGPLSWYSDPGLAGVSLTGGLSYKEDTKELVVAKAGVYYVFFQLELRRVVAGEGSGSVSLALHLQPLRSAAGAAALALTVDLPPASSEARNSAFGFQGRLLHLSAGQRLGVHLHTEARARHAWQLTQGATVLGLFRVTPEIPAGL
chain 2: EVQLLESGGGLVQPGGSLRLSCAASGFTFSSYAMSWVRQAPGKGLEWVSAIIGSGASTYYADSVKGRFTISRDNSKNTLYLQMNSLRAEDTAVYYCAKGWFGGFNYWGQGTLVTVSSASTKGPSVFPLAPSSKSTSGGTAALGCLVKDYFPEPVTVSWNSGALTSGVHTFPAVLQSSGLYSLSSVVTVPSSSLGTQTYICNVNHKPSNTKVDKKV[omitted - human IgG1 Fc with changes]GGGGSGGGGSREGPELSPDDPAGLLDLRQGMFAQLVAQNVLLIDGPLSWYSDPGLAGVSLTGGLSYKEDTKELVVAKAGVYYVFFQLELRRVVAGEGSGSVSLALHLQPLRSAAGAAALALTVDLPPASSEARNSAFGFQGRLLHLSAGQRLGVHLHTEARARHAWQLTQGATVLGLFRVTPEIPAGL
light: B1 light
B3: FAP (4B9)-4-1BB ligand (71-248) contorsbody P1AA1259 (Fc fusion)
chain 1: REGPELSPDDPAGLLDLRQGMFAQLVAQNVLLIDGPLSWYSDPGLAGVSLTGGLSYKEDTKELVVAKAGVYYVFFQLELRRVVAGEGSGSVSLALHLQPLRSAAGAAALALTVDLPPASSEARNSAFGFQGRLLHLSAGQRLGVHLHTEARARHAWQLTQGATVLGLFRVTPEIPAGLGGGGSGGGGSDKTHTCPPCPAPEAAGGPSVFLFPPKPKDTLMISRTPEVTCVVVDVSHEDPEVKFNWYVDGVEVHNAKTKPREEQYNSTYRVVSVLTVLHQDWLNGKEYKCKVSNKALGAPIEKTISKAKGQPREPQVCTLPPSRDELTKNQVSLSCAVKGFYPSDIAVEWESNGQPENNYKTTPPVLDSDGSFFLVSKLTVDKSRWQQGNVFSCSVMHEALHNHYTQKSLSLSPGGGGGSGGGGSSGGGGSREGPELSPDDPAGLLDLRQGMFAQLVAQNVLLIDGPLSWYSDPGLAGVSLTGGLSYKEDTKELVVAKAGVYYVFFQLELRRVVAGEGSGSVSLALHLQPLRSAAGAAALALTVDLPPASSEARNSAFGFQGRLLHLSAGQRLGVHLHTEARARHAWQLTQGATVLGLFRVTPEIPAGL
chain 2: EVQLLESGGGLVQPGGSLRLSCAASGFTFSSYAMSWVRQAPGKGLEWVSAIIGSGASTYYADSVKGRFTISRDNSKNTLYLQMNSLRAEDTAVYYCAKGWFGGFNYWGQGTLVTVSSASTKGPSVFPLAPSSKSTSGGTAALGCLVKDYFPEPVTVSWNSGALTSGVHTFPAVLQSSGLYSLSSVVTVPSSSLGTQTYICNVNHKPSNTKVDKKV[omitted - human IgG1 Fc with changes]GGGGSGGGGSREGPELSPDDPAGLLDLRQGMFAQLVAQNVLLIDGPLSWYSDPGLAGVSLTGGLSYKEDTKELVVAKAGVYYVFFQLELRRVVAGEGSGSVSLALHLQPLRSAAGAAALALTVDLPPASSEARNSAFGFQGRLLHLSAGQRLGVHLHTEARARHAWQLTQGATVLGLFRVTPEIPAGL
light: B1 light
B4: FAP (4B9)-4-1BB ligand (71-248) contorsbody P1AA9626 (Fc fusion)
chain 1: REGPELSPDDPAGLLDLRQGMFAQLVAQNVLLIDGPLSWYSDPGLAGVSLTGGLSYKEDTKELVVAKAGVYYVFFQLELRRVVAGEGSGSVSLALHLQPLRSAAGAAALALTVDLPPASSEARNSAFGFQGRLLHLSAGQRLGVHLHTEARARHAWQLTQGATVLGLFRVTPEIPAGLGGGGSGGGGSDKTHTCPPCPAPEAAGGPSVFLFPPKPKDTLMISRTPEVTCVVVDVSHEDPEVKFNWYVDGVEVHNAKTKPREEQYNSTYRVVSVLTVLHQDWLNGKEYKCKVSNKALGAPIEKTISKAKGQPREPQVCTLPPSRDELTKNQVSLSCAVKGFYPSDIAVEWESNGQPENNYKTTPPVLDSDGSFFLVSKLTVDKSRWQQGNVFSCSVMHEALHNHYTQKSLSLSPGGGGGSGGGGSREGPELSPDDPAGLLDLRQGMFAQLVAQNVLLIDGPLSWYSDPGLAGVSLTGGLSYKEDTKELVVAKAGVYYVFFQLELRRVVAGEGSGSVSLALHLQPLRSAAGAAALALTVDLPPASSEARNSAFGFQGRLLHLSAGQRLGVHLHTEARARHAWQLTQGATVLGLFRVTPEIPAGLGGGGSGGGGSREGPELSPDDPAGLLDLRQGMFAQLVAQNVLLIDGPLSWYSDPGLAGVSLTGGLSYKEDTKELVVAKAGVYYVFFQLELRRVVAGEGSGSVSLALHLQPLRSAAGAAALALTVDLPPASSEARNSAFGFQGRLLHLSAGQRLGVHLHTEARARHAWQLTQGATVLGLFRVTPEIPAGL
chain 2: EVQLLESGGGLVQPGGSLRLSCAASGFTFSSYAMSWVRQAPGKGLEWVSAIIGSGASTYYADSVKGRFTISRDNSKNTLYLQMNSLRAEDTAVYYCAKGWFGGFNYWGQGTLVTVSSASTKGPSVFPLAPSSKSTSGGTAALGCLVKDYFPEPVTVSWNSGALTSGVHTFPAVLQSSGLYSLSSVVTVPSSSLGTQTYICNVNHKPSNTKVDKKV[omitted - human IgG1 Fc with changes]GGGGSGGGGSEIVLTQSPGTLSLSPGERATLSCRASQSVTSSYLAWYQQKPGQAPRLLINVGSRRATGIPDRFSGSGSGTDFTLTISRLEPEDFAVYYCQQGIMLPPTFGQGTKVEIKRTVAAPSVFIFPPSDEQLKSGTASVVCLLNNFYPREAKVQWKVDNALQSGNSQESVTEQDSKDSTYSLSSTLTLSKADYEKHKVYACEVTHQGLSSPVTKSFNRGEC

Legend:
human 4-1BB (CD137) [1] = target: T1, human 4-1BB (CD137) (human, UniProt Q07011 24-255); assay: cell-based or functional assay
human 4-1BB (CD137) [2] = target: T1, human 4-1BB (CD137); assay: cell-based or functional assay; design: AUC of NFκB-luciferase activation curve, HeLa-hu4-1BB-NFκB-luc clone 26, no FAP-expressing cells / AUC of NFκB-luciferase activation curve, HeLa-hu4-1BB-NFκB-luc clone 26, with WM-266-4 cells: unit not given beside the values

Binder	AUC, % CD25+ of CD4 T cells, anti-CD3 stimulated human PBMC with NIH/3T3-huFAP clone 19 (human 4-1BB (CD137) [1])	AUC, % CD25+ of CD8 T cells, anti-CD3 stimulated human PBMC with NIH/3T3-huFAP clone 19 (human 4-1BB (CD137) [1])	AUC, % CD137+ of CD4 T cells, anti-CD3 stimulated human PBMC with NIH/3T3-huFAP clone 19 (human 4-1BB (CD137) [1])	AUC, % CD137+ of CD8 T cells, anti-CD3 stimulated human PBMC with NIH/3T3-huFAP clone 19 (human 4-1BB (CD137) [1])	EC50, % CD25+ of CD4 T cells, anti-CD3 stimulated human PBMC with NIH/3T3-huFAP clone 19 (human 4-1BB (CD137) [1])	EC50, % CD25+ of CD8 T cells, anti-CD3 stimulated human PBMC with NIH/3T3-huFAP clone 19 (human 4-1BB (CD137) [1])	EC50, % CD137+ of CD4 T cells, anti-CD3 stimulated human PBMC with NIH/3T3-huFAP clone 19 (human 4-1BB (CD137) [1])	EC50, % CD137+ of CD8 T cells, anti-CD3 stimulated human PBMC with NIH/3T3-huFAP clone 19 (human 4-1BB (CD137) [1])	AUC of NFκB-luciferase activation curve, HeLa-hu4-1BB-NFκB-luc clone 26, no FAP-expressing cells (human 4-1BB (CD137) [2])	AUC of NFκB-luciferase activation curve, HeLa-hu4-1BB-NFκB-luc clone 26, with NIH/3T3-huFAP clone 19 cells (human 4-1BB (CD137) [2])	AUC of NFκB-luciferase activation curve, HeLa-hu4-1BB-NFκB-luc clone 26, with WM-266-4 cells (human 4-1BB (CD137) [2])	EC50 of NFκB-luciferase activation, HeLa-hu4-1BB-NFκB-luc clone 26, no FAP-expressing cells (human 4-1BB (CD137) [2])	EC50 of NFκB-luciferase activation, HeLa-hu4-1BB-NFκB-luc clone 26, with NIH/3T3-huFAP clone 19 cells (human 4-1BB (CD137) [2])	EC50 of NFκB-luciferase activation, HeLa-hu4-1BB-NFκB-luc clone 26, with WM-266-4 cells (human 4-1BB (CD137) [2])
B1	471	498	59	59	9 pM	8 pM	0.07 nM	0.05 nM	8030	56200	31500	0.25 nM	0.01 nM	0.05 nM
B2									10300	41100	24600	0.84 nM	0.06 nM	0.13 nM
B3									10500	49900	27900	2.81 nM	0.02 nM	0.12 nM
B4									8250	47300	24200	0.92 nM	0.01 nM	0.07 nM
